Results as given in PubChem BioAssay AID463173 (ICCB-Longwood Screening Facility, Harvard Medical School, 2010).
Out of some 52,000 compounds screened, about 4,300 (8.3%) were called active. No stated cut-off is given here; in the data, active means survival mostly below about 52% (no sharp cut-off); inactive means mostly above about 56%. Some of the results follow.

tested on: DeltatarO mutant; assay: S. aureus survival, RN4220 and DeltatarO strains – OD600, teichoic acid synthesis inhibitors, primary screen (AID 463173); details: S. aureus RN4220 wild type/DeltatarO growth, OD600, 18 h, hits give low values, screened at 18.75 µg/mL (by protocol)

Row | SMILES | survival
1 | Cc1cc(S(=O)(=O)Nc2cc3c(cc2N2CCOCC2)n(C)c(=O)n3C)ccc1F | inactive: 80%
2 | COc1ccc(-n2c(=O)c3ccccc3n(Cc3ccc(F)cc3Cl)c2=O)cc1OC | inactive: 103%
3 | COCCNc1c(-c2ccc(N)cc2)nc2ccc(C)cn12 | inactive: 65%
4 | COc1ccc(N2CCN(CCCNC(=O)Nc3ccccc3Cl)CC2)cc1 | inactive: 81%
5 | COc1ccc(CCNC(=O)CN(c2ccc(C)cc2)S(=O)(=O)c2ccc(OC)cc2)cc1 | inactive: 67%
6 | CCOc1ccc(-c2nc3c(c(SCC(=O)N4CCCCC4)n2)Cc2cc(C)ccc2O3)cc1 | inactive: 88%
7 | COC(=O)CN(Cc1ccccc1)S(=O)(=O)c1ccc2c(c1)OCCO2 | inactive: 97%
8 | CCOc1ccc(CN2C(=O)c3ccccc3Sc3ccc(C(=O)N4CCN(C)CC4)cc32)cc1 | inactive: 85%
9 | CCC(CC)C(=O)Nc1c(C(=O)N2CCN(c3ccccc3F)CC2)oc2ccccc12 | inactive: 100%
10 | CCC(Sc1nc2cc(OC)c(OC)cc2c(=O)n1Cc1ccc(Cl)cc1)C(=O)NCCOC (stereo unspecified) | inactive: 91%
11 | COc1ccc(OC)c(NC(=O)CSC2=Nc3ccccc3C3=NC(CCC(=O)NCc4ccco4)C(=O)N23)c1 (stereo unspecified) | inactive: 78%
12 | O=S1(=O)c2ccccc2N(Cc2ccc(Cl)cc2F)c2ccccc21 | inactive: 84%
13 | CN(C)S(=O)(=O)c1ccc2c(c1)c(=O)c(C(=O)N1CCN(c3cccc(Cl)c3)CC1)cn2C | inactive: 95%
14 | CCOC(=O)c1ccc(NC(=O)CN(c2ccc(C)cc2)S(=O)(=O)c2ccc(OC)cc2)cc1 | inactive: 127%
15 | CCC(=O)Nc1nnc(S(=O)(=O)N(C)Cc2ccc(Cl)cc2)s1 | inactive: 94%
16 | CCOc1ccccc1NC(=O)CSC1=Nc2ccccc2C2=NC(CC(=O)NC3CCCCC3)C(=O)N12 (stereo unspecified) | inactive: 70%
17 | COc1ccc(OC)c(NC(=O)CSc2n[nH]c(-c3ccccc3Cl)n2)c1 | inactive: 96%
18 | c1ccc(-c2cn(-c3ccccc3)c3ncnc(N4CCN(c5ccccc5)CC4)c23)cc1 | inactive: 90%
19 | CC(N=C1NC(C)(C)Cc2ccccc21)C(=O)O (stereo unspecified) | inactive: 99%

Row | SMILES | survival
20 | CC(C)OC(=O)c1cc2c(ccn2C)n1CC(=O)N(Cc1ccccc1)c1ccccc1 | inactive: 58%
21 | CCOC(=O)CC(NC(=O)c1cc2cc(Cl)ccc2oc1=O)c1ccc(C)cc1 (stereo unspecified) | inactive: 144%
22 | COc1ccccc1N1CCN(c2ccc3cc(S(=O)(=O)N4CCCCC4)ccc3n2)CC1 | inactive: 76%
23 | Cc1cc(C)cc(Oc2c(C(F)(F)F)oc3c(CN4CCCC(C)C4)c(O)ccc3c2=O)c1 (stereo unspecified) | inactive: 76%
24 | CCOc1ccc(-n2nc(CO)c(C(=O)NCc3ccc(Cl)cc3)n2)cc1 | active: 43%
25 | CC(OC(=O)c1nsc(Cl)c1Cl)C(=O)NCc1cccs1 (stereo unspecified) | inactive: 107%
26 | COc1ccc(Br)c2c1-c1nc(NC(=O)c3cccc(C)c3)sc1C2 | inactive: 44%
27 | CC1CCN(C(=O)CSc2c3c(nc4cc(Cl)ccc24)CCCC3)CC1 | active: 5%
28 | Cc1ccc(-c2nnc(SCCOc3ccccc3)o2)cc1 | inactive: 106%
29 | Brc1ccc(-c2ccc(CNCCSc3nnnn3-c3ccccc3)o2)cc1 | inactive: 67%
30 | CCn1nnnc1SCC(N)=O | inactive: 99%
31 | O=C(NC1CC(=O)N(c2ccccc2)C1)c1ccc(S(=O)(=O)N2CCOCC2)cc1 (stereo unspecified) | inactive: 55%
32 | O=C(Nc1ccc(S(=O)(=O)N2CCC(c3nc4ccccc4s3)CC2)cc1)c1ccc(F)cc1 | inactive: 63%
33 | Nc1no[n+]([O-])c1C(=O)NCCO | inactive: 65%
34 | Cc1cc(C)c(S(=O)(=O)NCCc2cc3c(C)ccc(C)c3[nH]c2=O)c(C)c1 | inactive: 80%
35 | CCCC(=O)NCCc1nc2ccccc2n1Cc1c(F)cccc1Cl | inactive: 69%
36 | Cc1ccc(C)c(-n2nnc(-c3nc(-c4ccc(Cl)cc4)no3)c2N)c1 | inactive: 88%
37 | COc1ccc(F)cc1S(=O)(=O)NCCc1csc(-c2ccc(Cl)cc2)n1 | inactive: 89%
38 | CCOc1ccc(-c2cn(-c3ccc(OC)cc3)c(SCC(=O)Nc3ccccc3Cl)n2)cc1 | inactive: 99%

Row | SMILES | survival
39 | CCc1ccc(NC(=O)C2CCN(c3nnc(-n4c(C)ccc4C)s3)CC2)cc1 | inactive: 79%
40 | CC(=O)c1ccc(NC(=O)CSc2cn(CC(=O)N3CCCCC3)c3ccccc23)cc1 | inactive: 63%
41 | CC(C)(CN)C(O)C(=O)O (stereo unspecified) | inactive: 82%
42 | CCC(=O)Nc1sc2c(c1C(=O)Nc1ccc(OC)cc1)CCC(C(C)(C)C)C2 (stereo unspecified) | active: 13%
43 | CCN(C(=O)c1nn(-c2ccc(OC)c(Cl)c2)c(=O)c2c1c1ccccc1n2C)c1cc(OC)ccc1OC | inactive: 82%
44 | Cc1ccc(NC(=O)c2cccc(NC(=O)N3CCSc4ncccc43)c2)cc1Cl | inactive: 88%
45 | COc1ccc(N2CCN(C(=O)Cn3ncc4c3-c3cc(C)ccc3OC4)CC2)cc1 | inactive: 122%
46 | COc1ccc(-c2nc3sc(CCNC(=O)C(=O)Nc4cc(C)cc(C)c4)c(C)n3n2)cc1 | inactive: 97%
47 | COc1cc(OC)cc(C(=O)Nc2cc(-c3nc4ccccc4s3)ccc2OC)c1 | active: 42%
48 | Cc1ccc(C(=O)NCC(c2cccs2)S(=O)(=O)c2cccs2)cc1C (stereo unspecified) | inactive: 78%
49 | CCOc1ccc(NC(=O)CN(C)S(=O)(=O)c2ccc3c(c2)c(=O)n(C)c(=O)n3C)cc1 | inactive: 89%
50 | COc1ccc(NC(=O)c2sc3nc(C)c(C(=O)Nc4ccc(C)cc4C)c(-c4ccc(Cl)cc4)c3c2N)cc1 | inactive: 55%
51 | O=C(NCc1ccc2c(c1)CCN2C(=O)c1ccncc1)c1cccc(Cl)c1 | inactive: 75%
52 | COc1ccc(OC)c(NC(=O)CSC2=Nc3ccccc3C3=NC(CC(=O)NCc4ccco4)C(=O)N23)c1 (stereo unspecified) | inactive: 99%
53 | CC1C(=O)NN=C1C(=O)N/N=C\c1cccnc1 (stereo unspecified) | inactive: 87%
54 | N#Cc1ccc(C(=O)Nc2ccc(Cl)c(-c3nc4cc(Cl)ccc4o3)c2)c(F)c1 | active: 28%
55 | Cc1oc(-c2ccccc2F)nc1CS(=O)(=O)CC(=O)N1CCN(c2cccc(C(F)(F)F)c2)CC1 | inactive: 78%
56 | COc1ccccc1-c1noc(-c2ccc(NCCc3ccccc3)c([N+](=O)[O-])c2)n1 | active: 37%
